# Reference: ChEMBL document CHEMBL1961873, “Compounds: GSK PKIS; Assays: Nanosyn kinase panel” (2012)
# For some of these results: Shown are results outside the selection of strong results, which stands elsewhere. The entries are a selection whose mix differs from that of the whole data set.
# Tests used:
# [1] = target: T1, Inhibitor of nuclear factor kappa-B kinase subunit epsilon (Homo sapiens) (UniProt Q14164); details: at 1 µM;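 note: reported values are averaged percent inhibition figures against human IKKε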
# T1 sequence (whole entry): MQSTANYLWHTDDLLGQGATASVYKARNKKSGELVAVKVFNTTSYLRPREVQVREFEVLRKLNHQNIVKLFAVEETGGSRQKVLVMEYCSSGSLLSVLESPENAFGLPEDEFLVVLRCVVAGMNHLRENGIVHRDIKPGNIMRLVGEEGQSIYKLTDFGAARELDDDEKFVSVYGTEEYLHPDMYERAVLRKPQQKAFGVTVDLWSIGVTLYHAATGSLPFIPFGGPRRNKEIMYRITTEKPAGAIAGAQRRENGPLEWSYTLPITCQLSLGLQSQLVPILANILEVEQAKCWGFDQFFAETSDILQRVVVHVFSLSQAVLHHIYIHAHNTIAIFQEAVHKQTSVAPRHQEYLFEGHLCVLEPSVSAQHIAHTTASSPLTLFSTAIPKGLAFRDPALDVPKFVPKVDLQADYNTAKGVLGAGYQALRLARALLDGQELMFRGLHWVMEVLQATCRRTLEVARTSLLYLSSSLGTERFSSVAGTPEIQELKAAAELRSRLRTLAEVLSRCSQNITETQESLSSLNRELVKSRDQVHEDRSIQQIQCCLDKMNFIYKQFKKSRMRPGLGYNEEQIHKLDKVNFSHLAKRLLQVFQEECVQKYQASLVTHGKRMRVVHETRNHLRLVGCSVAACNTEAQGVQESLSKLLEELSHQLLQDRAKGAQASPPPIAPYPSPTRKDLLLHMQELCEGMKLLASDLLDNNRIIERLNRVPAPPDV
# [2] = target: T2, Serine/threonine-protein kinase Nek1 (Homo sapiens) (UniProt Q96PY6); details: at 0.1 µM
# T2 sequence (whole entry): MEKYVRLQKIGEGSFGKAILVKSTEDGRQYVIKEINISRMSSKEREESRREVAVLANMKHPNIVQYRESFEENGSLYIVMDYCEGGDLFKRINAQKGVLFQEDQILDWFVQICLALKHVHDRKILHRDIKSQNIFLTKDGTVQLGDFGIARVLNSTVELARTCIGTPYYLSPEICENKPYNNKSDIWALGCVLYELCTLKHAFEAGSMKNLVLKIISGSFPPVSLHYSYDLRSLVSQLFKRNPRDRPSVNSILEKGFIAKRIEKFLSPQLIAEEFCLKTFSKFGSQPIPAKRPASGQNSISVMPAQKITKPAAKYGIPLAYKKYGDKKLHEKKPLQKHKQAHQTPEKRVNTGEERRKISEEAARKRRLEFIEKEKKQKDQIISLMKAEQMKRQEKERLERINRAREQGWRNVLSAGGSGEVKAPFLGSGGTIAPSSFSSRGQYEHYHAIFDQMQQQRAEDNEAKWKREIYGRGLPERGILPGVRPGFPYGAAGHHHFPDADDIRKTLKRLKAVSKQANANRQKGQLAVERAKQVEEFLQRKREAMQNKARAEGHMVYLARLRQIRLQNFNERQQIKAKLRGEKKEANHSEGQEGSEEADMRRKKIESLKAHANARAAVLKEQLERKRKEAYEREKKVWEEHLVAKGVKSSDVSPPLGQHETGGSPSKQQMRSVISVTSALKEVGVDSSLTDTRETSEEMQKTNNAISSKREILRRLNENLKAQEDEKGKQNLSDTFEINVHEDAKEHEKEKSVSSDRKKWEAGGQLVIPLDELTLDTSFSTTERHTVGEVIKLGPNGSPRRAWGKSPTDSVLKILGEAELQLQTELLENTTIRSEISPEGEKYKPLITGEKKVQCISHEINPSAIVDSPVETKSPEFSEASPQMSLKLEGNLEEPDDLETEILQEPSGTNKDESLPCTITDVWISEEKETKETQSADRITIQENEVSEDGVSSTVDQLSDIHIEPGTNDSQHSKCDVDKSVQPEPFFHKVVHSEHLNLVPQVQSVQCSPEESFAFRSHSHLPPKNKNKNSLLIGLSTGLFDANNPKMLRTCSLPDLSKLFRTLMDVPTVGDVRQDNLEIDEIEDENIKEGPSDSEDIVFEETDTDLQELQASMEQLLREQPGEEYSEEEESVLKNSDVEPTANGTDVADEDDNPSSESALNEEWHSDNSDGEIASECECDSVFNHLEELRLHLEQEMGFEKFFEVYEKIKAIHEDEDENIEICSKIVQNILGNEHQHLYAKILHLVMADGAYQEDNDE
# [3] = target: T2, Serine/threonine-protein kinase Nek1 (Homo sapiens); details: at 1 µM
# [4] = target: T3, Serine/threonine-protein kinase Nek2 (Homo sapiens) (UniProt P51955); details: at 0.1 µM
# T3 sequence (whole entry): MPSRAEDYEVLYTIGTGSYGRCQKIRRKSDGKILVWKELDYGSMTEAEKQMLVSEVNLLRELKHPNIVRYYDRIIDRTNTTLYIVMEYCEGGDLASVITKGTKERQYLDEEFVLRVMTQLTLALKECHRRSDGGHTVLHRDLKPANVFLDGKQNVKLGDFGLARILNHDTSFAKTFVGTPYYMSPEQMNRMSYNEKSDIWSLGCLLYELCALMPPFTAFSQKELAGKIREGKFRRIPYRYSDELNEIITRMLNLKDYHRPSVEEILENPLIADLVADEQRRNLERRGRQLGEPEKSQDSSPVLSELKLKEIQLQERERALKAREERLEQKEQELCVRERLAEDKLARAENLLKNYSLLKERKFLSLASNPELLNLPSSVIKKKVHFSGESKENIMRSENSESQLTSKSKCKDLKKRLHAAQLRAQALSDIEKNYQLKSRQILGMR
# [5] = target: T3, Serine/threonine-protein kinase Nek2 (Homo sapiens); details: at 1 µM
# [6] = target: T4, Serine/threonine-protein kinase Nek6 (Homo sapiens) (UniProt Q9HC98); details: at 0.1 µM
# T4 sequence (whole entry): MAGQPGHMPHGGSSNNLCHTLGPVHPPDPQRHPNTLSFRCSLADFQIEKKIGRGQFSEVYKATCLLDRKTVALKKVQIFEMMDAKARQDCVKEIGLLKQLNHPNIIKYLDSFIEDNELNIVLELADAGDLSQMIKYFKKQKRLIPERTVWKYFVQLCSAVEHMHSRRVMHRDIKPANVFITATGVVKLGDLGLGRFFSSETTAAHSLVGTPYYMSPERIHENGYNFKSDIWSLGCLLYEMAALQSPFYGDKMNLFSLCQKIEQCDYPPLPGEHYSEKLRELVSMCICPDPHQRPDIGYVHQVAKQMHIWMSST
# [7] = target: T4, Serine/threonine-protein kinase Nek6 (Homo sapiens); details: at 1 µM
# [8] = target: Serine/threonine-protein kinase Nek7 (Homo sapiens) (UniProt Q8TDX7); details: at 0.1 µM
# UniProt Q8TDX7, sequence (Q8TDX7 whole entry, looked up): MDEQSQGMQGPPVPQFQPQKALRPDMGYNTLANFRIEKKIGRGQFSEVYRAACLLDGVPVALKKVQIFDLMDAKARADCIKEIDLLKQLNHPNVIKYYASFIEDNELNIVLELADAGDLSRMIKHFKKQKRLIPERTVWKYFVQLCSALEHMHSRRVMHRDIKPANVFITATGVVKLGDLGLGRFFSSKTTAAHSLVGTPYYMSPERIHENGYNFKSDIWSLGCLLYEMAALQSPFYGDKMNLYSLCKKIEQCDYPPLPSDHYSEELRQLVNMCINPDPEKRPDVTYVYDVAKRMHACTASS
# [9] = target: Serine/threonine-protein kinase Nek7 (Homo sapiens) (UniProt Q8TDX7); details: at 1 µM
# [10] = target: T5, Serine/threonine-protein kinase Nek9 (Homo sapiens) (UniProt Q8TD19); details: at 0.1 µM
# T5 sequence (whole entry): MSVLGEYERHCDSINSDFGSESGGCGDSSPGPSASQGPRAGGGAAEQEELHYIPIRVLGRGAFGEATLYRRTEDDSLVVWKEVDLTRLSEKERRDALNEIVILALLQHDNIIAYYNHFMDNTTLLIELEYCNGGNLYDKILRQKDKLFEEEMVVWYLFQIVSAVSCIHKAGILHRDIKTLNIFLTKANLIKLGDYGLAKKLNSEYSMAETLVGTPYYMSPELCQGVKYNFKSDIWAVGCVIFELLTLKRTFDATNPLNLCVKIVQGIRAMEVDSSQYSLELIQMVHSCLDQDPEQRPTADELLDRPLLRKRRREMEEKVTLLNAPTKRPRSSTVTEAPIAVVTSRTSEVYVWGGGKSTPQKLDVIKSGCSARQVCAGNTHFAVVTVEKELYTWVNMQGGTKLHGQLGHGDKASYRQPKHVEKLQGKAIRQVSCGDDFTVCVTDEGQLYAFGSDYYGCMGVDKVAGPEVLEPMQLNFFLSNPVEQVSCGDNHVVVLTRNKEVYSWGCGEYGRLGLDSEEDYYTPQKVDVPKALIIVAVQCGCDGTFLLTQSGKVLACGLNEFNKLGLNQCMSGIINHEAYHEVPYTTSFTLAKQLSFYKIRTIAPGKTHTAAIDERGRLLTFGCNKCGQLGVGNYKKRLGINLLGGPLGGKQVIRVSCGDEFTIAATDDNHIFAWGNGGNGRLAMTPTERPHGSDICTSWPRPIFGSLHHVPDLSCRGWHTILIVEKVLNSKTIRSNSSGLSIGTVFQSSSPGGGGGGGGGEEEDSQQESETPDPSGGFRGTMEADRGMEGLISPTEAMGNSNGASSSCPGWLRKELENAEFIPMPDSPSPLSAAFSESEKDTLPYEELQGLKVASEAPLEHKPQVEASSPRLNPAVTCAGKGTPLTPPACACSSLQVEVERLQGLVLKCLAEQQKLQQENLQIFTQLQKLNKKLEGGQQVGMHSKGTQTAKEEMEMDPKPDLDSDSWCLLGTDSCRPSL
# [11] = target: T5, Serine/threonine-protein kinase Nek9 (Homo sapiens); details: at 1 µM
# [12] = target: Serine/threonine-protein kinase PLK1 (Homo sapiens) (UniProt P53350); details: at 0.1 µM
# UniProt P53350, sequence (P53350 whole entry): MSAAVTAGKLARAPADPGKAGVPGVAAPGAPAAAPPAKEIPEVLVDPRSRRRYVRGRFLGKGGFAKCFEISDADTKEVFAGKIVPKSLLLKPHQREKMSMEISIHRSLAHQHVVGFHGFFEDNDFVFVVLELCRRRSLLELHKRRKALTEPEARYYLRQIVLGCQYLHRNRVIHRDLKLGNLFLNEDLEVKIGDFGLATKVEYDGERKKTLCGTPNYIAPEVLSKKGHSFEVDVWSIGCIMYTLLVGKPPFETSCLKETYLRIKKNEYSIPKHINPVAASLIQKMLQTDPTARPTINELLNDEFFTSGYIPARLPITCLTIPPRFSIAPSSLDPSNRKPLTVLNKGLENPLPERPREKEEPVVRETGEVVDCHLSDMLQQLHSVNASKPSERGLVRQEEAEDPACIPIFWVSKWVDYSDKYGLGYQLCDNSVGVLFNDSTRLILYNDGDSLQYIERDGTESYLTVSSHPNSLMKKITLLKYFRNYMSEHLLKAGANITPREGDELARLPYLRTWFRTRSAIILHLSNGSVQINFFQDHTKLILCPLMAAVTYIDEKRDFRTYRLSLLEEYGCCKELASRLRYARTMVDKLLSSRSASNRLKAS
# [13] = target: Serine/threonine-protein kinase PLK1 (Homo sapiens) (UniProt P53350); details: at 1 µM
# [14] = target: T6, Dual specificity protein kinase TTK (Homo sapiens) (UniProt P33981); details: at 0.1 µM
# T6 sequence (whole entry): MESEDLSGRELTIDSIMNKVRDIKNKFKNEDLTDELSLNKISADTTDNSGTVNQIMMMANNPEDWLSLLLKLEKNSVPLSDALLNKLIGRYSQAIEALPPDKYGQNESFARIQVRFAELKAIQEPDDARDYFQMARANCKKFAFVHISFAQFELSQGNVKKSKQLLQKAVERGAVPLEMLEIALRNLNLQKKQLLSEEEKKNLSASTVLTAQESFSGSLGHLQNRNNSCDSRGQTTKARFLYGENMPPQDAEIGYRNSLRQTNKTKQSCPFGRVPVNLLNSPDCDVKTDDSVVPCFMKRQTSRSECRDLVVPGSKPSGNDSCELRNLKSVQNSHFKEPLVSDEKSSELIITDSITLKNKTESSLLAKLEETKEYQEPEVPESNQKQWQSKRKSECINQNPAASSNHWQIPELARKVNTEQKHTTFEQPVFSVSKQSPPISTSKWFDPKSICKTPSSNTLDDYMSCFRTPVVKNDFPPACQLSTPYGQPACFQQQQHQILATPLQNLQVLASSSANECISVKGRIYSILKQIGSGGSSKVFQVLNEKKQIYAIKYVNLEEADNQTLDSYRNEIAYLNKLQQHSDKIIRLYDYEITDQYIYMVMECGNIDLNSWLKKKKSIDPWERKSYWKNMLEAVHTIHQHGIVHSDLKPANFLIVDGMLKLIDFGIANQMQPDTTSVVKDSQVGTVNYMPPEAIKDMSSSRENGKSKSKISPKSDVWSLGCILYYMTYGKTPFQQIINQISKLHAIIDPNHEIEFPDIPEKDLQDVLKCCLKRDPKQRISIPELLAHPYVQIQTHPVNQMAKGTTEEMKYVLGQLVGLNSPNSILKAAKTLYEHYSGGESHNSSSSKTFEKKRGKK
# [15] = target: Vascular endothelial growth factor receptor 3 (Homo sapiens) (UniProt P35916); details: at 0.1 µM
# UniProt P35916, sequence (P35916 whole entry): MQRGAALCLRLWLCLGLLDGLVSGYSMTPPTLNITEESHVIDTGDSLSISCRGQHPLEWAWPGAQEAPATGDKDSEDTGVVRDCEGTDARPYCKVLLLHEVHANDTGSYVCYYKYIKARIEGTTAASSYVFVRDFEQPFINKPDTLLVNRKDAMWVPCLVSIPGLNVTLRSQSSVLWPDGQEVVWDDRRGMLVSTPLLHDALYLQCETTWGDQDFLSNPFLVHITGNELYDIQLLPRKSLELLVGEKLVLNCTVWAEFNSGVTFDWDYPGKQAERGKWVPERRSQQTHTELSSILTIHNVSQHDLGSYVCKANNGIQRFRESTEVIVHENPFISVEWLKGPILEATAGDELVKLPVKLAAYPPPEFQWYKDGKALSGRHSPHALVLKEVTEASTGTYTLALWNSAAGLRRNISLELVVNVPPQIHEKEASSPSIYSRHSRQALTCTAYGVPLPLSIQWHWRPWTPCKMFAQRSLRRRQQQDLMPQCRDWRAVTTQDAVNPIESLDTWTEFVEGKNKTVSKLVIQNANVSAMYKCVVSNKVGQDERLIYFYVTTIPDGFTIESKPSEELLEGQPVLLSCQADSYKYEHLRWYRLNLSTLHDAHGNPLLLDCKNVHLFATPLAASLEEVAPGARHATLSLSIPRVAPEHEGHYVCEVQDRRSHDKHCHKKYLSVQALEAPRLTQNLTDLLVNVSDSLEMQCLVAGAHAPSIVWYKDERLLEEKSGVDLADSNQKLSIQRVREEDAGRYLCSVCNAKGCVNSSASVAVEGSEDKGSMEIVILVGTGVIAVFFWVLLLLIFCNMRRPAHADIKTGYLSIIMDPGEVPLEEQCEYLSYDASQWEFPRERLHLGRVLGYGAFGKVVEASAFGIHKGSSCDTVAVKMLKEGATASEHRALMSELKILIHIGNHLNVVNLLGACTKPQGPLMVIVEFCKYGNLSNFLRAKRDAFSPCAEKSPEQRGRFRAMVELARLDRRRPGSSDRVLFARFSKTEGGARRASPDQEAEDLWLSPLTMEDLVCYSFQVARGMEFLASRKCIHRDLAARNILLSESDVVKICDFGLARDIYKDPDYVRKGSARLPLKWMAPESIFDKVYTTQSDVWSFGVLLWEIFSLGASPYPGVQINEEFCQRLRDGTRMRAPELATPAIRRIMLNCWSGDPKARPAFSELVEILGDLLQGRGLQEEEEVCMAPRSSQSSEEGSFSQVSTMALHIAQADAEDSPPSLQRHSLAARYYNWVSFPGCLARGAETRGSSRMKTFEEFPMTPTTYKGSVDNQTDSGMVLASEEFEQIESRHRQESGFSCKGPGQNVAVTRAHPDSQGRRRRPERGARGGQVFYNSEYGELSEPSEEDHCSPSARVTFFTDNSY
# [16] = target: Vascular endothelial growth factor receptor 3 (Homo sapiens) (UniProt P35916); details: at 1 µM
# [17] = target: Macrophage colony-stimulating factor 1 receptor (Homo sapiens) (UniProt P07333); details: at 0.1 µM
# UniProt P07333, sequence (P07333 whole entry): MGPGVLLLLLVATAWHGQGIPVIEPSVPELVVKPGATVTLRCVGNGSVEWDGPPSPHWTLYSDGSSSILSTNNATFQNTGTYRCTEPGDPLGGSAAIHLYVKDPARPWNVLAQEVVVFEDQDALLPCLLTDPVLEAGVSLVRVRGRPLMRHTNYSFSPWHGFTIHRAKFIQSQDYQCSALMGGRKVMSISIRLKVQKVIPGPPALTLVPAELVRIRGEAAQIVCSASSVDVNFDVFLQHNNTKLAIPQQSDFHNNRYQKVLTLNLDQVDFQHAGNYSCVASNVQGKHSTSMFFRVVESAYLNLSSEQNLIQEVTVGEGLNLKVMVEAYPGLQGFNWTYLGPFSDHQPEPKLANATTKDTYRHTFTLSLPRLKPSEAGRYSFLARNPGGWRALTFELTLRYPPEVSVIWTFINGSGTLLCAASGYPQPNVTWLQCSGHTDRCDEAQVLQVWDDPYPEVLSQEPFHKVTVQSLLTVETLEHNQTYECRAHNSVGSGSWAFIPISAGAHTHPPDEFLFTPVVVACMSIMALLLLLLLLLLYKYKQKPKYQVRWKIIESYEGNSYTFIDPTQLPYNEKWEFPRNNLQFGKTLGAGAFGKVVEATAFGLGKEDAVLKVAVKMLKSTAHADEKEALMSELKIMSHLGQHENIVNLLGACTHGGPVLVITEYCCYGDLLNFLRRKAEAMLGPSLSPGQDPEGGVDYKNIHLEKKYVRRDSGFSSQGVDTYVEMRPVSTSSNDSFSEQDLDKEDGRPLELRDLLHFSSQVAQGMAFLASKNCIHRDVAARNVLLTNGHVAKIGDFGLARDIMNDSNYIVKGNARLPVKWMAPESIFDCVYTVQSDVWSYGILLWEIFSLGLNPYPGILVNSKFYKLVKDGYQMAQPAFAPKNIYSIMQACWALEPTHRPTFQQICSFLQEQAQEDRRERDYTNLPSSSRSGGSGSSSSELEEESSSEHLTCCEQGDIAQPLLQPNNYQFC
# [18] = target: Macrophage colony-stimulating factor 1 receptor (Homo sapiens) (UniProt P07333); details: at 1 µM
# [19] = target: Tyrosine-protein kinase Fyn (Homo sapiens) (UniProt P06241); details: at 0.1 µM
# UniProt P06241, sequence (P06241 whole entry, looked up): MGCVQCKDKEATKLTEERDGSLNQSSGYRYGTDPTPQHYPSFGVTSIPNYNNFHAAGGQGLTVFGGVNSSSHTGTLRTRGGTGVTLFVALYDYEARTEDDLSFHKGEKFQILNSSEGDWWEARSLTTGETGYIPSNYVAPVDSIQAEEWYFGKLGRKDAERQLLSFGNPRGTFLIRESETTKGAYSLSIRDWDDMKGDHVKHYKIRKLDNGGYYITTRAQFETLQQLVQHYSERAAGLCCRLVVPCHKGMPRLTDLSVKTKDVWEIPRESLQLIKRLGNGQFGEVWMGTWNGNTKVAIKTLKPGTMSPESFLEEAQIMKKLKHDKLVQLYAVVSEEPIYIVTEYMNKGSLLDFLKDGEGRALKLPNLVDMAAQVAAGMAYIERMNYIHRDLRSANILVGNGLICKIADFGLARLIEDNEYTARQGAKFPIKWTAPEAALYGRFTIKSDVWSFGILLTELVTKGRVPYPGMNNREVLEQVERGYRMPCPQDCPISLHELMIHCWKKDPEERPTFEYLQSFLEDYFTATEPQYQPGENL
smiles,measurement,setting,value
CS(=O)(=O)c1ccc(Oc2nccc(-c3c(-c4ccc(F)cc4)ncn3C3CCNCC3)n2)cc1,inhibition,[1],4.65%
same,inhibition,[2],1.77%
same,inhibition,[3],3.04%
same,inhibition,[4],5.24%
same,inhibition,[5],6.08%
same,inhibition,[6],0.94%
same,inhibition,[7],1.56%
same,inhibition,[8],3.74%
same,inhibition,[9],5.22%
same,inhibition,[10],8.18%
same,inhibition,[11],7.01%
same,inhibition,[12],4.11%
same,inhibition,[13],3.44%
same,inhibition,[14],9.5%
same,inhibition,[15],-0.77%
same,inhibition,[16],-3.12%
same,inhibition,[17],-1.87%
same,inhibition,[18],3.3%
same,inhibition,[19],-0.5%
